Source: the supplement of paper PMC3334620
The full ranking holds about 33,000 sequences; the median of “E-score (-0.5 to 0.5)” is about -0.035, and the highest 2% start at about 0.34. The list shows a part of the results.

molecular target: T1, Mot3 (UniProt P54785); assay: PBM E-score (8-mer binding enrichment) (E-score (-0.5 to 0.5)); higher = stronger / more preferred TF binding; most listed sequences are background and not binding sites; settings: protein concentration: 200 nM; construct: GST-full length
T1 sequence: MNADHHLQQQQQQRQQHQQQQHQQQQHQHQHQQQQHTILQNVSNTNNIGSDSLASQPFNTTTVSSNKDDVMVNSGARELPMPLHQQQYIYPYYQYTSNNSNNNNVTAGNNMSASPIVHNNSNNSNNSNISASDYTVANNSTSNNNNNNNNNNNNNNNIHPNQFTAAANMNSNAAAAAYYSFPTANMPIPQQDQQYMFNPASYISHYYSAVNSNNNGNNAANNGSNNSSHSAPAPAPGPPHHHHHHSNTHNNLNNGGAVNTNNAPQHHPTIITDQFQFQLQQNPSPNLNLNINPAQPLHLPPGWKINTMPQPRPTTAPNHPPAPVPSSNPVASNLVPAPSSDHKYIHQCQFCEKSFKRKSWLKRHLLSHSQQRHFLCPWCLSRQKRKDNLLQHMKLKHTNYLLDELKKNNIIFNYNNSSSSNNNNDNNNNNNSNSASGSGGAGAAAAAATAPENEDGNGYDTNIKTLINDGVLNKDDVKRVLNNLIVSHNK
In short: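 Bound GST-tagged yeast transcription factors, applied at about 100-200 nM to double-stranded universal all-10-mer Agilent arrays, were detected with fluorescent anti-GST. Scans were normalised with masliner. A modified Wilcoxon-Mann-Whitney statistic, the E-score, was assigned to each ungapped eight-base word pooled with its reverse complement by the Universal PBM Analysis Suite.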

Row | Sequence | PBM E-score
1 | ATTGTTTA | 0.0804
2 | GAACACTA | 0.0431
3 | CATTGTAG | 0.106
4 | CTTGTTCC | 0.163
5 | CAGGCTAG | -0.29
6 | ACGCACGA | 0.275
7 | CTGTGAAA | 0.21
8 | ATAGTTCG | 0.0253
9 | AAATTCCT | 0.00581
10 | CGTGTCAG | 0.223
11 | ATAAGATC | -0.131
12 | CACAACCG | 0.107
13 | CAGATCCC | -0.0782
14 | CCTTCTTA | 0.263
15 | GGCAGCCA | -0.077
16 | ATGGACGA | -0.0659
17 | GCTCTAGA | -0.321
18 | CTACTTGA | 0.0707
19 | ATGTGGAC | -0.0682
20 | TAACACTA | 0.188
21 | ACCGGGAG | -0.119
22 | ATGTCTCC | 0.0109

Row | Sequence | PBM E-score
23 | ACCAAAAC | 0.0416
24 | CGTGAAGA | -0.047
25 | CTGGACGC | -0.307
26 | GAATATCA | -0.328
27 | AGGACCGG | -0.238
28 | GGACCGGA | -0.397
29 | GTGGAATA | 0.0294
30 | ACTCCGCG | -0.273
31 | GACGAGCA | -0.216
32 | ACGACAGA | -0.138
33 | CGCCAAAA | -0.025
34 | ACTTCGAC | 0.0681
35 | CATGCTGG | -0.0121
36 | CTCTGATC | -0.0566
37 | ATCCAAGA | -0.0318
38 | TGAGATAA | 0.0186
39 | CTGTTACC | 0.173
40 | GCGTAGAC | 0.00486
41 | TCGACCAA | 0.0354
42 | GTGGCGTA | -0.0441
43 | TATTCCAA | 0.122
44 | ACCGCCAA | -0.161

Row | Sequence | PBM E-score
45 | CATTCTTA | -0.0851
46 | AGGAACTG | 0.413
47 | ATGTTGTG | 0.333
48 | ACCGGCGC | -0.0888
49 | ATAATCAC | -0.0146
50 | TTACAAAA | 0.278
51 | AAGCCGAT | -0.0824
52 | GGCCCAGA | -0.411
53 | CCGTGCTC | -0.025
54 | GGTATGAC | -0.141
55 | ATATGTTC | 0.0319
56 | CCTCTGAA | -0.291
57 | CCTCGTCC | -0.234
58 | ACATAAAT | 0.217
59 | GGACTAAC | -0.231
60 | CAGTCGAG | -0.249
61 | AGGTCATA | -0.0537
62 | AGCCTAAC | 0.1
63 | GCCCCACC | -0.365
64 | CAATCCGA | -0.088
65 | AGTGGCCC | -0.247
66 | AAAGAATG | 0.154

Row | Sequence | PBM E-score
67 | GACCTGGA | -0.167
68 | AACCTCCT | -0.166
69 | CCTGCGGC | -0.185
70 | AAACCACC | -0.21
71 | ACTACCCA | -0.0288
72 | CCCCGGGA | -0.15
73 | AGAAGATC | -0.154
74 | CCAGTGCA | -0.167
75 | AGCAACAT | 0.161
76 | CCGAGCTC | -0.0663
77 | GTCGAGGA | -0.0194
78 | ACCATGCC | 0.0668
79 | AACCACAG | -0.0518
80 | TAGATACA | 0.15
81 | AAGGCGTC | 0.121
82 | GCCGTACC | 0.0343
83 | ACGAAATA | 0.0999
84 | CAGGCCGG | -0.169
85 | ATCACTGA | -0.104
86 | CTACTGCA | 0.0194
87 | ATCGTCAG | -0.0478
88 | CAGTCAGG | 0.136

Row | Sequence | PBM E-score
89 | CGCCTGTC | -0.00587
90 | GAAATATA | 0.17
91 | CAAGAGAG | -0.158
92 | ACGCCAAT | 0.0255
93 | CCTCGCAG | -0.145
94 | AATAGACG | -0.138
95 | ATTGTGAG | -0.109
96 | CCTGCCCA | -0.108
97 | CCGTGGAG | -0.397
98 | CAGTCCGA | -0.057
99 | CTGTAAAG | 0.24
100 | CATGCGAA | 0.197
101 | CCCTCATC | -0.139
102 | CCGTCAGC | -0.368
103 | ACCATCAA | -0.0603
104 | CTAATATC | -0.145
105 | GCCAGATA | -0.213
106 | CTCACTAA | 0.063
107 | CTTAGGTC | -0.0764
108 | AGCATACG | -0.107
109 | ATCCCACG | -0.144
